Measurements as given in patent publication US20250304706A1 (Astellas, published 2025).

B1: BTE-0105 (bispecific antibody)
heavy: QVQLVESGGGVVQPGGSLRLSCAASGFTFSSYGMHWVRQAPGKGLEWVAVIWYDGRNKYYADSVKGRFTISRDNSKNTLYLQMNSLRAEDTAVYYCTRDHSGSGSYYIDYWGQGTLVTVSSASTKGPSVFPLAPSSKSTSGGTAALGCLVKDYFPEPVTVSWNSGALTSGVHTFPAVLQSSGLYSLSSVVTVPSSSLGTQTYICNVNHKPSNTKVDKKVEPKSCDKTHTCPPCPAPEAAGGPSVFLFPPKPKDTLMISRTPEVTCVVVDVSHEDPEVKFNWYVDGVEVHNAKTKPREEQYNSTYRVVSVLTVLHQDWLNGKEYKCKVSNKALAAPIEKTISKAKGQPREPQVYTLPPSRDELTKNQVSLSCAVKGFYPSDIAVEWESNGQPENNYKTTPPVLDSDGSFFLVSKLTVDKSRWQQGNVFSCSVMHEALHNHYTQKSLSLSPGK
light: EIAMTQSPATLSVSPGERATLSCRASQSVSSNLAWYQQKPGQAPRLLIYGASTRATGLPARFSGSGSGTEFTLTISSLQSEDFAVYYCQQYNNFWTFGQGTKVEIKRTVAAPSVFIFPPSDEQLKSGTASVVCLLNNFYPREAKVQWKVDNALQSGNSQESVTEQDSKDSTYSLSSTLTLSKADYEKHKVYACEVTHQGLSSPVTKSFNRGEC
scFv-Fc: EVQLVESGGGLIQPGGSLRLSCAASGFTFNTYAMHWVRQAPGKGLEWVARIRSKYNNYATYYADSVKDRFTISRDDSKSTLYLQMNNLRAEDTAVYYCVRHGNFGNSYVSWFAYWGQGTLVTVSSGKPGSGKPGSGKPGSGKPGSQAVVTQEPSLTVSPGGTVTLTCRSSTGAVTTSNYANWVQQKPGQAPRGLIGGTNKRAPGTPARFSGSLLGDKAALTLSGAQPEDEADYYCALWYSNLWVFGGGTKVTVL[human IgG1 Fc with C220S L234A L235A P329A T366W (EU numbers) cut from this listing]
notes: anti-TSPAN8/anti-CD3
B2: BTE-0132 (bispecific antibody)
chain 1: B1 heavy
chain 2: B1 light
chain 3: B1 scFv-Fc with H35N, Y61S, D232E
B3: BTE-0119 (bispecific antibody)
chain 1: B1 heavy
chain 2: B1 light
chain 3: B1 scFv-Fc with H35N, Y55A, D232E, L242H
B4: BTE-0117 (bispecific antibody)
chain 1: B1 heavy
chain 2: B1 light
chain 3: B1 scFv-Fc with H35A, D232E, L242H
B5: BTE-0131 (bispecific antibody)
chain 1: B1 heavy
chain 2: B1 light
chain 3: B1 scFv-Fc with H35N, Y61E, D232E
B6: BTE-0093 (bispecific antibody)
chain 1: B1 heavy
chain 2: B1 light
chain 3: B1 scFv-Fc with H35S, L222I, D232E
B7: BTE-0110 (bispecific antibody)
chain 1: B1 heavy
chain 2: B1 light
chain 3: B1 scFv-Fc with H35N, Y61S
B8: BTE-0115 (bispecific antibody)
chain 1: B1 heavy
chain 2: B1 light
chain 3: B1 scFv-Fc with H35S, D232E, L242H
B9: BTE-0108 (bispecific antibody)
chain 1: B1 heavy
chain 2: B1 light
chain 3: B1 scFv-Fc with H35N, Y55A
B10: BTE-0103 (bispecific antibody)
chain 1: B1 heavy
chain 2: B1 light
chain 3: B1 scFv-Fc with N30S, T31D, Y32H, H35N
B11: BTE-0109 (bispecific antibody)
chain 1: B1 heavy
chain 2: B1 light
chain 3: B1 scFv-Fc with H35N, Y61E
B12: BTE-0133 (bispecific antibody)
chain 1: B1 heavy
chain 2: B1 light
chain 3: B1 scFv-Fc with H35N, S107E, D232E
B13: BTE-0120 (bispecific antibody)
chain 1: B1 heavy
chain 2: B1 light
chain 3: B1 scFv-Fc with H35N, Y61E, D232E, L242H
B14: BTE-0125 (bispecific antibody)
chain 1: B1 heavy
chain 2: B1 light
chain 3: B1 scFv-Fc with N30S, T31D, Y32H, H35N, D232E
B15: BTE-0130 (bispecific antibody)
chain 1: B1 heavy
chain 2: B1 light
chain 3: B1 scFv-Fc with H35N, Y55A, D232E
B16: BTE-0126 (bispecific antibody)
chain 1: B1 heavy
chain 2: B1 light
chain 3: B1 scFv-Fc with H35S, D232E
B17: BTE-0121 (bispecific antibody)
chain 1: B1 heavy
chain 2: B1 light
chain 3: B1 scFv-Fc with H35N, Y61S, D232E, L242H
B18: BTE-0104 (bispecific antibody)
chain 1: B1 heavy
chain 2: B1 light
chain 3: B1 scFv-Fc with H35S
B19: BTE-0122 (bispecific antibody)
chain 1: B1 heavy
chain 2: B1 light
chain 3: B1 scFv-Fc with H35N, S107E, D232E, L242H
B20: BTE-0114 (bispecific antibody)
chain 1: B1 heavy
chain 2: B1 light
chain 3: B1 scFv-Fc with N30S, T31D, Y32H, H35N, D232E, L242H
B21: BTE-0123 (bispecific antibody)
chain 1: B1 heavy
chain 2: B1 light
chain 3: B1 scFv-Fc with H35N, S107D, D232E, L242H
B22: BTE-0107 (bispecific antibody)
heavy: B1 heavy
light: B1 light
scFv-Fc: B1 scFv-Fc with H35G
notes: anti-TSPAN8/anti-CD3
B23: BTE-0106 (bispecific antibody)
heavy: B1 heavy
light: B1 light
scFv-Fc: B1 scFv-Fc with H35A
notes: anti-TSPAN8/anti-CD3
B24: BTE-0116 (bispecific antibody)
heavy: B1 heavy
light: B1 light
scFv-Fc: B1 scFv-Fc with D232E, L242H
notes: anti-TSPAN8/anti-CD3
B25: BTE-0124 (bispecific antibody)
heavy: B1 heavy
light: B1 light
scFv-Fc: B1 scFv-Fc with H35N, A113D, D232E, L242H
notes: anti-TSPAN8/anti-CD3
B26: BTE-0118 (bispecific antibody)
heavy: B1 heavy
light: B1 light
scFv-Fc: B1 scFv-Fc with H35G, D232E, L242H
notes: anti-TSPAN8/anti-CD3
B27: BTE-0113 (bispecific antibody)
heavy: B1 heavy
light: B1 light
scFv-Fc: B1 scFv-Fc with H35N, A113D
notes: anti-TSPAN8/anti-CD3
B28: BTE-0135 (bispecific antibody)
heavy: B1 heavy
light: B1 light
scFv-Fc: B1 scFv-Fc with H35N, A113D, D232E
notes: anti-TSPAN8/anti-CD3
B29: BTE-0111 (bispecific antibody)
heavy: B1 heavy
light: B1 light
scFv-Fc: B1 scFv-Fc with H35N, S107E
notes: anti-TSPAN8/anti-CD3
B30: BTE-0128 (bispecific antibody)
heavy: B1 heavy
light: B1 light
scFv-Fc: B1 scFv-Fc with H35A, D232E
B31: BTE-0112 (bispecific antibody)
heavy: B1 heavy
light: B1 light
scFv-Fc: B1 scFv-Fc with H35N, S107D
notes: anti-TSPAN8/anti-CD3
B32: BTE-0129 (bispecific antibody)
heavy: B1 heavy
light: B1 light
scFv-Fc: B1 scFv-Fc with H35G, D232E
B33: BTE-0134 (bispecific antibody)
heavy: B1 heavy
light: B1 light
scFv-Fc: B1 scFv-Fc with H35N, S107D, D232E
notes: anti-TSPAN8/anti-CD3
B34: BTE-0127 (bispecific antibody)
heavy: B1 heavy
light: B1 light
scFv-Fc: B1 scFv-Fc with D232E

What follows are binders tested against T1, CD3εδ complex protein (human; alpaca, UniProt P07766 23-126; P04234 22-105) (assay: ELISA, CD3 complex immobilized).
T1 construct: they are not part of the secreted protein; also called human CD3; CD386 complex protein
Outline: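 Bispecific anti-TSPAN8/anti-CD3 antibodies bound to immobilized CD3εδ complex protein in ELISA, detected with HRP anti-human IgG Fc and TMB absorbance. EC50 from a four-parameter variable-slope fit, top fixed at plate maximum and bottom at blank; reference antibody averaged across plates.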

Sequence of UniProt P07766 (P07766 23-126 limits assumed, stated change not applied, form in doubt, chain 1 of 2): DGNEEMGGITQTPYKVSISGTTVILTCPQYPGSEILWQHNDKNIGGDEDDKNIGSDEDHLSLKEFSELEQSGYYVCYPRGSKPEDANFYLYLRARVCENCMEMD
Sequence of UniProt P07766 (P04234 22-105 limits assumed, stated change not applied, form in doubt, chain 2 of 2, further chain): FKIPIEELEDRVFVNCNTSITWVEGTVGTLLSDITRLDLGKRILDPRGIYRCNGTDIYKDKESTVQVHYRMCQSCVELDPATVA

| Binder | EC50 |
| --- | --- |
| B1 | 0.201 µg/mL |
| B2 | 0.0315 µg/mL |
| B3 | 0.0232 µg/mL |
| B4 | 0.09 µg/mL |
| B5 | 0.269 µg/mL |
| B6 | 0.0903 µg/mL |
| B7 | 0.0471 µg/mL |
| B8 | 0.358 µg/mL |
| B9 | 0.00831 µg/mL |
| B10 | 0.18 µg/mL |
| B11 | 0.217 µg/mL |
| B12 | 0.0693 µg/mL |
| B13 | 0.24 µg/mL |
| B14 | 0.163 µg/mL |
| B15 | 0.0109 µg/mL |
| B16 | 0.33 µg/mL |
| B17 | 0.0458 µg/mL |

| Binder | EC50 |
| --- | --- |
| B18 | 0.499 µg/mL |
| B19 | 0.242 µg/mL |
| B20 | 0.086 µg/mL |
| B21 | 0.192 µg/mL |
| B22 | 0.594 µg/mL |
| B23 | 0.327 µg/mL |
| B24 | 0.187 µg/mL |
| B25 | 0.378 µg/mL |
| B26 | 0.709 µg/mL |
| B27 | 0.363 µg/mL |
| B28 | 0.204 µg/mL |
| B29 | 0.066 µg/mL |
| B30 | 0.174 µg/mL |
| B31 | 0.0433 µg/mL |
| B32 | 0.469 µg/mL |
| B33 | 0.046 µg/mL |
| B34 | 0.122 µg/mL |

Residue numbers refer to the chain shown, from its start.
